The target of one experiment is T1, IL2-Rα ectodomain (UniProt P01589 22-240).
T1 construct: IL-2 receptor alpha chain (IL-2Rα, CD25), ectodomain
T1 sequence (looked up): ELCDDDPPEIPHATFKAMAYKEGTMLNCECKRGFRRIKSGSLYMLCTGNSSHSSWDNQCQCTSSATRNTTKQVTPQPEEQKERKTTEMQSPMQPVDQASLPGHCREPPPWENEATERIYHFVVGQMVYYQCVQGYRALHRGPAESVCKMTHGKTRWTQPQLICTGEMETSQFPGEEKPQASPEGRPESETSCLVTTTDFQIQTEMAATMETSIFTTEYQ
Briefly: BLI; Octet RED384; biotinylated monomeric IL-2/Fc fusion proteins loaded to Streptavidin biosensors at roughly 10% of saturation; IL-2Rα from 25 nM to 20 pM in PBS + 0.1% BSA; equilibrium binding used to determine the KD; quadruplicate across two days. The following applies: both partners purified.

The next experiment deals with T2, IL-2Rβ/g Fc heterodimer (UniProt P14784 27-240; P31785 23-262).
T2 construct: IL-2 receptor beta chain (IL-2Rβ), ectodomain; common gamma chain (γc), ectodomain; also called IL-2Rβ/γc; IL-2Rβ/γ; source: Expi293 system, purified (MabSelect resin); not shown: Fc (heterodimeric); copies: 1 + 1
T2 sequence (looked up) 1: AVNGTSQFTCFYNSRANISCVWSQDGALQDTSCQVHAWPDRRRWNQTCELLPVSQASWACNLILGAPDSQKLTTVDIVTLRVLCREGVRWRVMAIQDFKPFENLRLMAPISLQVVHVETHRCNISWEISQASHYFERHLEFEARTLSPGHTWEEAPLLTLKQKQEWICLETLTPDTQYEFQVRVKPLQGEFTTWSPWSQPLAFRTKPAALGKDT
T2 sequence (looked up) 2: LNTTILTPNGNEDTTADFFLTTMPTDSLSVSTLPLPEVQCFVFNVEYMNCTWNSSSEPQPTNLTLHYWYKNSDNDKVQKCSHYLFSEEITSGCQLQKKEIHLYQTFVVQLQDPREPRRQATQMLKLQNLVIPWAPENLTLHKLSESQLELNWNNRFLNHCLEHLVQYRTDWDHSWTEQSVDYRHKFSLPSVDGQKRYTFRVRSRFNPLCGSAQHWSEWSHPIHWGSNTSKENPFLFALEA
Briefly: BLI; Octet RED384; biotinylated monomeric IL-2/Fc fusion proteins loaded to Streptavidin biosensors at roughly 10% of saturation; IL-2Rβ/g titrated in 2x steps from 400 nM to 6.25 nM in PBS + 0.1% BSA; association up to 40 mins; 1:1 binding model fitted to the entire binding curve; quadruplicate across two days. The following applies: both partners purified.

B1: N88D (IL-2 mutein, monomeric IL-2/Fc fusion protein) (Fc fusion)
chain: not shown
modifications: biotin (BirA enzyme, AviTag)
notes: human interleukin-2 (IL-2) with N88D; source: Expi293 expression system, purified (MabSelect resin), biotinylated with BirA; not shown: Fc (human IgG1); mutations to prevent dimerization
Consider B1, for which the binding result with IL2-Rα ectodomain and in the experiment with IL-2Rβ/g Fc heterodimer was “binds” each time.

(Values after publication PMC8179794, “Modeling cell-specific dynamics and regulation of the common gamma chain cytokines” (Cell reports, 2021).)
